From the supplement of paper PMC3334620
Whole data set: some 33,000 sequences, median “E-score (-0.5 to 0.5)” near -0.017, cut for the highest 2% near 0.3. Some of the results follow.

Biological target: T1, Sut1 (UniProt P53032)
T1 sequence: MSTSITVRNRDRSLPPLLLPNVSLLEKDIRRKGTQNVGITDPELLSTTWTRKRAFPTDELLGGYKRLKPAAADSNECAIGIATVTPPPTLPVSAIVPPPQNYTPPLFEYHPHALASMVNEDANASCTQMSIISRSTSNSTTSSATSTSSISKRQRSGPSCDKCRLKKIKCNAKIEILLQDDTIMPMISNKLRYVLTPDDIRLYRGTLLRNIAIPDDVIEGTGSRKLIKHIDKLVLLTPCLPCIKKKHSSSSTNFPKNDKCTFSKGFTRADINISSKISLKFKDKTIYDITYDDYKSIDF
Experiment: PBM E-score (8-mer binding enrichment) (E-score (-0.5 to 0.5)); higher = stronger / more preferred TF binding; most listed sequences are background and not binding sites
Conditions: protein concentration: 200 nM; construct: GST-full length
In short: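 Each ungapped eight-base word and its reverse complement, pooled, received an E-score from the Universal PBM Analysis Suite. Underlying scans, normalised with masliner, recorded fluorescent anti-GST bound to GST-tagged yeast transcription factors. These were applied at about 100-200 nM to universal all-10-mer Agilent arrays double-stranded by primer extension.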

Sequence	PBM E-score
AGGATCTA	-0.204
ATTACGGA	0.353
GGAAAAGA	0.058
CACTAAAA	0.22
CGTTAAAC	0.192
CCCTTAGC	-0.268
GATCCGAA	0.26
AGAGGTAA	0.108
TATGATCA	0.0698
AGGGAAAC	-0.0896
ATGGAACA	-0.203
AAAGGTAA	0.109
ATAACAAG	0.21
CCTACAGG	-0.255
CCAGCCCG	-0.128
TCTTTCCA	-0.083
ACTATCCG	0.227
GACTACGC	0.0927
CTCCGGAA	0.442
ATATTTGG	0.0141
CGATGGAC	-0.00486
AATTCAAC	0.274

Sequence	PBM E-score
GGGCAGAC	-0.347
CACCGGCC	-0.231
CTCACTGA	-0.086
AATCGGCA	0.107
CAAAAGAG	0.0171
GGCAGTGA	-0.158
GCGTACGC	-0.11
ACTTTCGA	0.0968
AAAAGTTA	0.208
CATGCCCA	-0.306
ACGAAAGG	0.0497
CCCTAATC	-0.141
ACACTCAT	0.1
ACGAAGTC	0.0625
GCGGCCGC	-0.199
AGCGTGTG	-0.0751
CAACGACG	-0.0856
ATAAACGA	0.263
ATCTTGGA	-0.0178
ACTCTAGA	0.155
CGAGACAC	-0.249
AGGCCAAC	-0.136

Sequence	PBM E-score
GTTGTTTA	0.275
GCATGGAC	-0.112
CTGAATCA	-0.139
CAGACCGG	0.0208
ATTGATGC	0.0977
CGATCGAG	-0.0334
GCATAACA	0.21
CCGGCACA	-0.0265
ATATAAAA	0.205
AGAGGCCG	-0.291
ACGGTTTA	-0.0415
ACTTATCT	0.188
GTGAACGA	0.0573
GCTTTTAC	0.115
CACGAGAA	0.0179
CCATCGGA	0.255
CTCGTGAA	0.104
GACCTAGC	0.00279
GCGGTTAA	-0.0201
CGTCAGAC	-0.201
AGATTTTC	0.149
CACGGCAG	0.0407

Sequence	PBM E-score
AACGGCGC	-0.245
GTCTTTTA	-0.0185
CGTCCGAA	0.125
AACGTAAA	0.0903
ATAGGTCC	0.164
ATGATGTG	0.0779
AGCCCCTG	-0.4
ATAGAAGG	-0.146
AACCCTAA	0.116
GCAAGTGC	-0.324
CTGCGCTC	-0.221
AGTGCCCG	-0.052
ACGCGTCT	-0.115
GACGTCAA	0.0712
ATCTTTTA	0.0745
GCACGGGC	-0.262
CTGAATGA	0.137
AAAGCCGT	0.00934
CTACAGCC	-0.088
CTAGGAAC	-0.0827
